In ChEMBL document CHEMBL1201862, “PubChem BioAssay data set” (2004):
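Interpolation was linear, between the two tested concentrations surrounding the appropriate level; five concentrations were tested over 48 hours in 96-well plates. GI50 is the concentration that inhibits growth by half.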 The source made the active and inactive calls. Rule as the data show it: active = GI50 up to about 1.1 µM and inactive = higher.

These compounds were tested on NCI-H322M (assay: NCI anticancer screen, dose series, 48 h).
For O=C(O)CCN1C(=S)CSC1=S, the GI50 was inactive: > 100 µM.
In the case of Cc1cccc(NC(=S)N/N=C2\C(=O)Nc3ccccc32)c1, the GI50 is reported as inactive: > 100 µM.
C[N+](C)(C)CC1CCCC(C[N+](C)(C)C)C1=O (stereo not given) was tested, and the GI50 was inactive: 17.8 µM.
N#CC(=N)c1ncn(-c2ccccc2N)c1N was tested, and the GI50 was inactive: > 100 µM.
With C=C(C)[C@@H]1CC[C@@H]2C(=CC[C@]3(C)C([C@H](C)CC/C=C(/C)C(=O)O)CC[C@@]23C)[C@@]1(C)CCC(=O)O (stereo not given in full) the GI50 was inactive: 26.4 µM.
For CC1=NN=C(NCCN(C)C)C/C1=C/c1ccccc1Cl, the GI50 was inactive: > 100 µM.
N#Cc1c(-c2ccco2)c2c(n(C3OC(CO)C(O)C(O)C3O)c1=S)CCCC2 (stereo not given) was tested, and the GI50 was inactive: > 100 µM.
With O=C(O)/C=N\N=c1[nH]c2ccccc2[nH]1 the GI50 was inactive: > 100 µM.
C=C=C(C)[Si](C)(C)C was tested, and the GI50 was inactive: > 100 µM.
In the case of Nc1ccccc1C(=O)N/N=C1\C(=O)Nc2ccccc21, the GI50 is reported as inactive: > 100 µM.
For CCNC(C)(C)C(SS)c1ccc(Br)cc1 (stereo not given), the GI50 was inactive: > 100 µM.
For CC1=C(C(=O)Nc2ccccc2C)C(c2ccccc2O)C(C(=O)Nc2ccccc2C)=C(C)N1, the GI50 was inactive: 25.1 µM.
With CCCCn1cc(C(=O)O)c(=O)c2c3sccc3ccc21 the GI50 was inactive: > 100 µM.
In the case of CC(=O)OC(CC(C)C)P1(=O)N(CC(C)(C)C)[C@@H]2CCCC[C@H]2N1CC(C)(C)C (stereo not given in full), the GI50 is reported as inactive: 12.9 µM.
For ON(Cc1ccccc1)C(=S)c1ccccc1, the GI50 was inactive: 3.32 µM.
In the case of O=C(O)CC12CC3CC(CC(O)(C3)C1)C2, the GI50 is reported as inactive: > 100 µM.
In the case of CC(C)(CC1(C)NC(=O)NC1=O)OCc1ccccc1 (stereo not given), the GI50 is reported as inactive: > 100 µM.
In the case of O=C(NC(=O)c1ccccc1[N+](=O)[O-])Nc1ccc(Oc2ncc(Cl)cn2)c([N+](=O)[O-])c1, the GI50 is reported as active: 0.385 µM.
CCOC(=O)c1ccc(/N=C2\Sc3nc4ccccc4n3\C2=N\c2ccc(C(=O)OCC)cc2)cc1 was tested, and the GI50 was inactive: 26.7 µM.
With COc1cc(OC)cc(Oc2nc3cc(F)c(F)cc3nc2-c2ccccc2)c1 the GI50 was inactive: > 100 µM.
In the case of C=C1C(=O)O[C@H]2[C@H]3O[C@@H](C[C@@H]12)[C@@]1(C)CC[C@H](O1)C(C)=CCC[C@H]3C, the GI50 is reported as inactive: 4.92 µM.
With CC(C)=CCC/C(C)=C/CCC1(C)C=Cc2c(c3ccccc3oc2=O)O1 (stereo not given) the GI50 was inactive: 17.2 µM.
With CC1OC(O[C@H]2C3C=CO[C@@H](OC4OC(CO)C(O)C(O)C4O)C3[C@@]3(COC(=O)/C=C/c4ccc(O)cc4)O[C@@H]23)C(O)C(O)C1O (stereo not given in full) the GI50 was inactive: > 100 µM.
O=C1c2ccccc2NC(c2cc(Cl)cc(Cl)c2O)N1CCc1ccccn1 (stereo not given) was tested, and the GI50 was inactive: 61 µM.
CCC(c1ccccc1)c1cc(C(C)(C)C)cc(C(C)(C)C)c1O (stereo not given) was tested, and the GI50 was inactive: 17.9 µM.
For Oc1ccc(Cl)cc1C1=NC(/N=C\c2ccccc2)=NC(c2ccccc2)C1 (stereo not given), the GI50 was inactive: 91.8 µM.
In the case of COC(=O)/C(=N\NC(=O)c1ccccc1O)C(C#N)c1ccccc1 (stereo not given), the GI50 is reported as inactive: 23.7 µM.
For Cc1n[nH]c(CC#N)n1, the GI50 was inactive: > 100 µM.
Cn1cc(C(=O)c2nccc3c2cnc2ccccc23)ccc1=O was tested, and the GI50 was inactive: > 100 µM.
For Cc1cnc2c(c1)C(=O)N(c1ccc(Oc3ccccc3)cc1)S2(=O)=O, the GI50 was inactive: > 100 µM.
With O=C(Cn1cc(-c2ccccc2)nn1)NC1CCCC1 the GI50 was inactive: > 100 µM.
With C=CCc1cc(OC)c2c(c1)C(O)CC(c1ccc(OC)c(OC)c1)O2 (stereo not given) the GI50 was inactive: > 100 µM.
With O=C1C=CC=C/C1=C1\N=C(c2ccccc2OCC(=O)c2ccccc2)SS1 the GI50 was inactive: > 100 µM.
For COc1ccc2[nH]c3c(C)c4ccnc(NCCCN(C)CCCNC(=O)NCCCN(C)CCCNc5nccc6c(C)c7[nH]c8ccc(OC)cc8c7c(C)c56)c4c(C)c3c2c1, the GI50 was active: 0.929 µM.
For COC(=O)C(=O)C(C(=O)C(=O)Nc1ccc([N+](=O)[O-])cc1[N+](=O)[O-])c1nc2ccc([N+](=O)[O-])cc2nc1O (stereo not given), the GI50 was inactive: 29.5 µM.
For C[C@@H](NC(=O)[C@@H]1C[C@]1(C)COC(=O)c1cc([N+](=O)[O-])cc([N+](=O)[O-])c1)c1cccc2ccccc12, the GI50 was inactive: > 100 µM.
O=C1N2CCC[C@H]2CS1(=O)=O was tested, and the GI50 was inactive: 22.7 µM.
With O=C(Nc1nnc(S)[nH]1)C(=O)C(c1cnc2ccc([N+](=O)[O-])cc2n1)[N+](=O)[O-] (stereo not given) the GI50 was inactive: > 100 µM.
For Cc1c(N2C(=O)/C(=C/c3ccc(N(CCC#N)CCC#N)cc3)N=C2c2ccccc2)c(=O)n(-c2ccccc2)n1C, the GI50 was inactive: > 100 µM.
In the case of COc1cc(C2OC[C@@H]3C(=O)OC[C@H]23)cc(O)c1OC (stereo not given in full), the GI50 is reported as inactive: > 100 µM.
In the case of Cc1coc2c1CC1(C)C(CCC(O)C1C)C2 (stereo not given), the GI50 is reported as inactive: > 100 µM.
In the case of O=C(CC(Cl)=C(Cl)Cl)c1ccccc1, the GI50 is reported as inactive: > 100 µM.
For O=C1C(=CNC(=S)c2ccccc2)C(=O)c2ccccc21, the GI50 was inactive: 76.7 µM.
With CC1CC/C(=C\c2ccc(N(C)C)cc2)C2=C1C(c1ccc(N(C)C)cc1)NC(=S)N2 (stereo not given) the GI50 was inactive: > 100 µM.
With COc1ccc(/C(C#N)=C2/O/C(=N/N)C(c3ccc(OC)c(OC)c3)C2=O)cc1OC (stereo not given) the GI50 was inactive: > 100 µM.
For CC(=N/NC(=S)N1CCCCCC1)/C(C)=N\NC(=S)N1CCCCCC1, the GI50 was inactive: 4.42 µM.
With c1cc(NC2=NCCO2)c2c(c1)OCO2 the GI50 was inactive: > 100 µM.
In the case of CCOC(=O)N1CCN(Cc2cc(=O)n3cc(C)ccc3n2)CC1, the GI50 is reported as inactive: > 100 µM.
In the case of CCOC(=O)N1CCN(c2ccc3ccc(N)nc3n2)CC1, the GI50 is reported as inactive: > 100 µM.
With ON=C1CCC(c2ccccc2)CC1 (stereo not given) the GI50 was inactive: > 100 µM.
In the case of CCn1nc(C)c2c1C(=O)NC(C)C(=O)N2 (stereo not given), the GI50 is reported as inactive: > 100 µM.
With COCCOCC(=O)N(CCn1ccc(NC(c2ccccc2)(c2ccccc2)c2ccccc2)nc1=O)CCn1cnc2nc(N)[nH]c(=O)c21 the GI50 was inactive: > 100 µM.
With Cc1ccccc1S(=O)(=O)Nn1cnc2ccc(S(=O)(=O)Nc3ccc(Cl)cc3)cc2c1=O the GI50 was inactive: > 100 µM.
In the case of CCC1(CC)C(=O)OC(=O)C1(CC)CC, the GI50 is reported as inactive: > 100 µM.
CCCCCCC(=O)c1ccc2ccccc2c1O was tested, and the GI50 was inactive: > 100 µM.
With CCNCC(=O)Nc1ccc2c(c1)C(=O)c1ccc(NC(=O)CNCC)cc1C2=O the GI50 was inactive: 1.58 µM.
For CCCN1CN(C(C(=O)N[C@@H]2C(=O)N3C2SC(C)(C)C3C(=O)O)c2ccccc2)CSC1=S (stereo not given in full), the GI50 was inactive: > 100 µM.
For CCCN(CCC)c1cc2c(cc1F)c(=O)c(C(=O)O)cn2-c1ccc(N2CCN(C)CC2)cn1, the GI50 was inactive: 15 µM.
With C[C@H]1C(=O)O[C@@H]2CCN3CC=C(COC(=O)[C@](C)(O)[C@@]1(C)O)[C@H]23 the GI50 was inactive: > 100 µM.
O=C(O)C(CSC(c1ccccc1)(c1ccccc1)c1ccccc1)/N=C/c1cccs1 (stereo not given) was tested, and the GI50 was inactive: 1.7 µM.
O=C(c1ccco1)N(C(=O)N1CCC(c2ccccc2)CC1)c1ccccc1 was tested, and the GI50 was inactive: > 100 µM.
For O[C@H]1[C@H](O)[C@H](O)CN2CCC[C@@H](O)[C@H]12, the GI50 was inactive: > 100 µM.
For CCCC(=O)Oc1c2ccsc2c(OC(=O)CCC)c2ccsc12, the GI50 was inactive: 4.09 µM.
In the case of CC(Oc1ccc(Cl)cc1Cl)C(=O)NN1C(=O)CC(=O)NC1=S (stereo not given), the GI50 is reported as inactive: > 100 µM.
In the case of COC1CCC2C(=O)CCCC2O1 (stereo not given), the GI50 is reported as inactive: > 100 µM.
With O=c1oc2ccccc2cc1-c1csc(Nc2cc(Cl)cc(Cl)c2)n1 the GI50 was inactive: > 48 µM.
In the case of NCCCCNCCCNC(=O)c1csc(-c2nc(CCN)sc2Cl)n1, the GI50 is reported as inactive: > 100 µM.
With CC1(C)OC1CC/C(=C/CBr)CBr (stereo not given) the GI50 was inactive: 19.4 µM.
For COC(=O)C1=C(O)C(C(=O)OC)C2CC(=O)CC1C2(C)C (stereo not given), the GI50 was inactive: > 100 µM.
O=[N+]([O-])c1cc2c(cc1/C=N/n1c(CO)nc3ccccc31)OCO2 was tested, and the GI50 was inactive: > 100 µM.
C/C(=C1/N=C(c2ccccc2)OC1=O)c1cccs1 was tested, and the GI50 was inactive: > 100 µM.
For COC(=O)[C@H]1ON2O[C@@H](O[C@H]3CCCC[C@@H]3C(C)(C)c3ccccc3)C[C@@H]3CC[C@H]1[C@@]32C, the GI50 was inactive: > 100 µM.
Nc1ccc(-c2nc3ccc(Cc4ccc5nc(-c6ccc(N)cc6)oc5c4)cc3o2)cc1 was tested, and the GI50 was inactive: > 100 µM.
With Cc1nc2c(nc1Cl)nc(Oc1ccc(Cl)cc1)c1ccccc12 the GI50 was inactive: > 100 µM.
For Nc1ncnc2c1ncn2C1OC(CSC(F)(F)F)C(O)C1O (stereo not given), the GI50 was inactive: > 100 µM.
O=[N+]([O-])c1ccc(S(=O)(=O)N=Ic2ccccc2)cc1 was tested, and the GI50 was inactive: > 100 µM.
COc1ccc2c(c1)CCN1CCCc3ccccc3C21 (stereo not given) was tested, and the GI50 was inactive: 42.8 µM.
COc1cc(OCc2nc3cc(C(F)(F)F)ccc3nc2-c2ccccc2)cc(OC)c1OC was tested, and the GI50 was inactive: 57.3 µM.
With C#CC[N+](CCO)(CCO)CCCCCCCCCCCCCCCCCC the GI50 was inactive: 14.6 µM.
With O=C(O/N=C1\CCCC\C1=C/c1ccccc1)c1ccc([N+](=O)[O-])cc1 the GI50 was inactive: > 100 µM.
O=c1[nH]c2c(C(F)(F)F)c(Cl)c(-c3ccccc3)nc2o1 was tested, and the GI50 was inactive: 10.8 µM.
For O=C=NCCCCCCN1C(=O)N2C(c3ccccc3)N(CCCCCCN=C=O)C(=O)N2C1c1ccccc1 (stereo not given), the GI50 was inactive: > 100 µM.
For N#C[C@H](c1ccccn1)c1nc2ccccc2nc1Cl, the GI50 was inactive: > 100 µM.
CC1(C)O[C@H](C(=O)O)[C@@H](C(=O)O)O1 was tested, and the GI50 was inactive: > 100 µM.
CN1c2ccc(O)c(O)c2-c2cc(O)cc3c2C1CCC3 (stereo not given) was tested, and the GI50 was inactive: 33.3 µM.
With Cn1c(=O)c(Cl)c(N=[N+]=[N-])c2ccccc21 the GI50 was inactive: > 100 µM.
In the case of CN1C(=O)C(C#N)C2C[C@@]1(C)Oc1ccccc12 (stereo not given in full), the GI50 is reported as inactive: > 100 µM.
With CNC1=C(C)C(=O)C2=C(C1=O)C(COC(N)=O)C1(OC)C3NC3CN21 (stereo not given) the GI50 was active: 0.337 µM.
With O=C1Nc2cc(F)ccc2C1=O the GI50 was inactive: > 100 µM.
In the case of O=C(OC[C@H]1C[C@H]2C(=O)OCCC[C@H]2O1)c1ccccc1, the GI50 is reported as inactive: > 100 µM.
For O=C(c1ccccc1)C1N=NCC1c1ccc([N+](=O)[O-])cc1 (stereo not given), the GI50 was inactive: 57.9 µM.
With Nc1nc(I)nc2c1ncn2C1OC(COS(N)(=O)=O)C(O)C1O (stereo not given) the GI50 was active: < 0.01 µM.
In the case of Nc1ccc(-c2nc3ccc(F)cc3s2)cc1, the GI50 is reported as inactive: 34.5 µM.
In the case of O=C1C(c2c(O)[nH]c3ccc(Cl)cc23)=Nc2ccccc21, the GI50 is reported as inactive: 4.1 µM.
With Cc1cc2c(ccc3c(C)cc(=O)oc32)o1 the GI50 was inactive: > 100 µM.
